Test results reported in PubChem BioAssay AID652104 (National Center for Advancing Translational Sciences (NCATS), 2013).
The campaign covered roughly 410,000 compounds. About 7,200 (1.8%) were called active. Inconclusive results, whose numbers are uncertain, are shown with a selection of clear calls. Calls follow the shape of the dose curve; as a rule, active = well fitted activation curve with a large enough effect; inconclusive = small, poorly fitted or top-dose-only effect, or another doubt; inactive = no such curve, though single readings can be large or run the other way. No potency is given beside an inconclusive call; the fits are too rough.

Assay: qHTS of TDP-43 Inhibitors; also: nearly all actives have a fitted effect of over 50% in size; as to growth rescue (activation): % of control where 0% means no effect
Details: TDP-43 expressing yeast growth rescue, BacTiter-Glo, 24 h; growth rescue (activation): at 46.1 µM (top of the series) unless noted
Method in brief: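 Galactose-induced TDP-43 yeast, OD600=0.02, compound pinned; 24 hr, 30 deg C; BacTiter-Glo luminescence for growth. Inhibitors of TDP-43 toxicity read as activators.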
Potency is read from the fitted curve at half-maximal effect; tags tell the direction and shape of the fitted curve.

Row | Compound | Potency | growth rescue (activation)
1 | CSc1cccc(NC(=S)NC(=O)c2cccnc2)c1 | inconclusive [activator, single point] | –
2 | O=C(COC(=O)/C=C/c1cccc([N+](=O)[O-])c1)Nc1ccc(Cl)cn1 | inconclusive [activator, partial curve] | –
3 | CC1(C(=O)NCc2ccccc2)CN(S(C)(=O)=O)CC(=O)N1CCc1c[nH]c2ccccc12 (stereo not given) | – | inactive: 1.92%
4 | COc1ccc(C(=O)COC(=O)c2cc(C)no2)c(OC)c1 | inconclusive [activator, partial curve, poor fit] | –
5 | CCn1c(SCC(=O)O)nc2ccccc21 | – | inactive: 17.1%
6 | COc1ccc(CN2C(=O)COc3ccccc32)cc1 | inconclusive [activator, single point] | –
7 | Cc1ccccc1C(=O)N1CCc2c([nH]c3ccccc23)C1C(F)(F)F (stereo not given) | active: 22.4 µM | –
8 | COc1cccc(-n2cc(C(=O)Oc3ccc(F)cc3)c3ccccc3c2=O)c1 | inconclusive [activator, full curve, poor fit] | –
9 | Cn1c(SCc2cccc(F)c2)nnc1-c1ccccn1 | inconclusive [activator, single point] | –
10 | COc1cc(C(=O)Nc2cccc(OCc3cc(=O)n4c(C)csc4n3)c2)cc(OC)c1OC | – | inactive: 2.2%
11 | NS(=O)(=O)c1ccc(CCNC(=O)CSc2ncnc3ccccc23)cc1 | – | inactive: -9.15% [at 0.397 µM]
12 | Cc1cccc(NC(=S)NNC(=O)c2csc(C(C)C)c2)c1 | inconclusive [activator, partial curve] | –
13 | c1ccc(CSc2nnc(-c3ccco3)n2Cc2ccccc2)cc1 | inconclusive [activator, single point] | –
14 | Cc1ccc(NS(=O)(=O)c2ccc(-c3cnc(C4CC4)o3)cc2)cc1 | inconclusive [activator, single point] | –
15 | Cn1c(=O)c2c(nc(CN3CCN(c4ccc(F)cc4)CC3)n2Cc2ccccc2F)n(C)c1=O | inconclusive [activator, single point] | –
16 | COc1ccccc1NC(=S)N1CCN(c2ccccc2F)CC1 | inconclusive [activator, single point] | –
17 | CC1(C)SC2c3ccccc3C(=O)N2[C@@H]1C(=O)NC1CC1 (stereo not given in full) | active: 1.26 µM | –
18 | CCOc1ncccc1C(=O)OCc1ccc(C#N)cc1 | inconclusive [activator, partial curve] | –
19 | CSc1ncccc1C(=O)Nc1cc(Cl)ccc1N1CCOCC1 | inconclusive [activator, single point] | –
20 | CCOC(=O)c1c(/N=C/c2cc(C)ccc2O)sc2c1CCC2 | inconclusive [activator, single point] | –
21 | O=C1/C(=C/c2ccncc2)SC(=S)N1Nc1ccccc1 | inconclusive [activator, single point] | –
22 | N/C(Cc1ccc(Cl)cc1Cl)=N\OC(=O)c1ccccc1 | – | inconclusive: -92.7% [activator]
23 | CN(C)CCCNc1nc2cc(-c3ccc(C(=O)N4CCN(C)CC4)cc3)sc2c(=O)n1C | inconclusive [activator, full curve] | –

Row | Compound | Potency | growth rescue (activation)
24 | O=c1cc2nc(-c3ccccc3)nc(SCc3cccc(Br)c3)n2[nH]1 | inconclusive [activator, single point] | –
25 | CCOC(=O)C1CCCN(S(=O)(=O)c2ccc3c4c2CC(=O)N4CC(C)S3)C1 (stereo not given) | inconclusive [activator, single point] | –
26 | Nc1cc(S(=O)(=O)N2CCCCC2)ccc1N1CCCCC1 | inconclusive [activator, partial curve] | –
27 | CCOC(=O)C1CCCN(C(=O)c2cc(-c3ccc(C)cc3)on2)C1 (stereo not given) | inconclusive [activator, partial curve] | –
28 | Cn1c(C(C(=O)NCC2CCCO2)N(C(=O)Cn2nnc3ccccc32)C2CCCCC2)nc2ccccc21 (stereo not given) | inconclusive [activator, single point] | –
29 | C/C(=N\NC(=O)CCCC(=O)O)c1c(-c2ccccc2)c2cc(Cl)ccc2[nH]c1=O | – | inactive: 3.13%
30 | CCN(CC)c1ccc(/C=N/Nc2nn[nH]n2)cc1 | inconclusive [activator, partial curve] | –
31 | C/C(=C/c1ccccc1)C(=O)N1CCN(c2ccccc2)CC1 | inconclusive [activator, single point] | –
32 | CC(C)n1ncc2c(C(=O)Nc3cccc(C#N)c3)cc(C3CC3)nc21 | active: 22.4 µM | –
33 | CCc1ccc(OCC(=O)NCC(c2ccc(Cl)cc2)N2CCOCC2)cc1 (stereo not given) | inconclusive [activator, partial curve] | –
34 | Cc1cc([N+](=O)[O-])cc2c1NCC1CC=CC21 (stereo not given) | inconclusive [activator, partial curve] | –
35 | CCOc1cc(-c2noc(N)c2C(=O)OC)cc(OCC)c1OCC | – | inactive: 9.71%
36 | COC(=O)C1=CN(C2CCCCC2)C=C(C(=O)OC)C1c1ccc2c(c1)OCO2 | inconclusive [activator, partial curve] | –
37 | O=S1(=O)CCOC[C@H](Cc2ccccc2)N1Cc1ccc(Cl)cc1 | active: 15.8 µM | –
38 | O=C(Cn1cc(C(=O)c2ccco2)c2ccccc21)NCc1ccco1 | – | inactive: 9.44%
39 | CC1Cc2ccccc2N1C(=O)CSc1ccccn1 (stereo not given) | inconclusive [activator, partial curve, poor fit] | –
40 | NC(Cc1ccc(Cl)cc1)c1csc(NC(=O)NCC2CCCCC2)n1 (stereo not given) | inconclusive [activator, partial curve] | –
41 | Cc1c(OC(C(=O)O)c2ccccc2)ccc2c1oc(=O)c1ccccc12 (stereo not given) | – | inactive: -18.2%
42 | COc1ccc(Nc2ncnc3c2cnn3C)c(OC)c1 | – | inactive: -5.17%
43 | CC(=O)Nc1ccc(NC(=O)C2Cc3c(-c4cccc(C(C)=O)c4)ccnc3O2)cc1 (stereo not given) | – | inactive: 20.7%
44 | CCCCN(CCCC)C(=O)c1cc2c(=O)n3ccccc3nc2s1 | inconclusive [activator, partial curve] | –
45 | CC(C)C(C(=O)Nc1ccc2c(c1)OCO2)N1C(=O)c2ccccc2C1=O (stereo not given) | inconclusive [activator, single point] | –
